# Assay results taken from PubChem BioAssay AID686979 (National Center for Advancing Translational Sciences (NCATS), 2013).
# Among all 420,000 compounds or so, about 50,000 (12%) were called active. The inconclusive results got no clear call from the source; some entries with a clear call stand among them for comparison. Calls follow the shape of the dose curve; as a rule, active = well fitted inhibition curve with a large enough effect; inconclusive = small, poorly fitted or top-dose-only effect; inactive = flat fitted curve, though single readings scatter. Potencies of inconclusive entries are left out as doubtful fits.
# Experiment: qHTS for Inhibitors of human tyrosyl-DNA phosphodiesterase 1 (TDP1): qHTS in cells in presence of CPT; also: nearly all actives have a fitted effect of over 55% in size
# Settings: chicken DT40 Tdp1-/-;hTDP1 cells + 20 nM CPT, ATP luminescence, 48 h; activity change, negative = growth inhibition: at 46.2 µM (top of the series) unless noted
# Procedure, shortened: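 Chicken DT40 Tdp1-/- cells complemented with human TDP1, 400 cells/well, exposed to compounds plus 20 nM camptothecin for at least 48 h at 37 C; viability read as ATP content by CellTiter-Glo luminescence.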
# % is scaled to controls: 0 for no effect and ±100 for the full control effect; potency is read from the fitted curve at half-maximal effect; tags tell the direction and shape of the fitted curve.
Compound,Potency,"activity change, negative = growth inhibition"
COc1ccccc1CNC(=O)CN1C(=O)CCc2cc(S(=O)(=O)N3CCCCC3)ccc21,"inconclusive [inhibitor, single point]",–
CC1(C)Cc2ccccc2C2CC(O)C(=O)N21 (configuration not stated),active: 14.6 µM,–
FC(F)(F)c1cccc(-n2cc(-c3ccccc3)c3c(N4CCCCC4)ncnc32)c1,"inconclusive [inhibitor, single point]",–
O=C1CC(N2CCC(c3nc4ccccc4o3)CC2)C(=O)N1c1ccc(Cl)c(C(F)(F)F)c1 (configuration not stated),"inconclusive [inhibitor, single point]",–
CCOC(=O)C1CCN(c2nc3c(S(=O)(=O)c4ccc(Br)cc4)nnn3c3ccsc23)CC1,"inconclusive [inhibitor, single point]",–
O=C(NC12CC3CC(CC(C3)C1)C2)c1cc([N+](=O)[O-])ccc1Cl,"inconclusive [inhibitor, single point]",–
CCc1ccc(NC(=O)CC(c2cc(OC)c(OC)c(OC)c2)N2Cc3ccccc3C2=O)cc1 (configuration not stated),"inconclusive [inhibitor, single point]",–
O=C(CSC1=NCCN1)Nc1cccc(C(F)(F)F)c1,active: 20.6 µM,–
O=C(O)c1ccc(S(=O)(=O)Nc2ccc(O)c(Sc3nc4ccccc4s3)c2)cc1,–,inactive: 3.87%
N#Cc1cc2c(=O)n3ccccc3nc2n(CCCn2ccnc2)c1=N,"inconclusive [inhibitor, single point]",–
O=[N+]([O-])c1ccc2[nH]c(O)c(N=NC(=S)NCC3CCCO3)c2c1 (configuration not stated),"inconclusive [inhibitor, single point]",–
CCOC(=O)Cc1c(C)nc2c(-c3ccccc3OC)c(C)nn2c1C,–,inactive: -26.5%
CC(C)(C)NC(=O)C(=O)NNC(=O)c1ccc(C(C)(C)C)cc1,"inconclusive [inhibitor, single point]",–
COCc1[nH]nc2c1C(c1ccsc1)C(C#N)=C(N)O2 (configuration not stated),"inconclusive [inhibitor, single point]",–
COc1ncccc1-c1cc2nc(NCCNC(C)=O)n(C)c(=O)c2s1,"inconclusive [inhibitor, single point]",–
COc1ccc(C2=C/C(=C\c3ccc(OC(C)=O)cc3)C(=O)O2)cc1,–,inactive: -19.9%
Cn1c(=O)n(C)c2cc(NS(=O)(=O)c3ccc(F)cc3)c(NCc3ccccc3)cc21,active: 9.2 µM,–
OC(CN1c2ccccc2Sc2ccccc21)Cn1nnc2ccccc21 (configuration not stated),"inconclusive [inhibitor, partial curve]",–
CCOC(=O)c1c(NC(=O)CSc2nnc3ccccn23)sc2c1CCC2,"inconclusive [inhibitor, single point]",–
CCCN(CC(=O)Nc1ccccc1C)C(=O)COC(=O)c1cnc(C)cn1,–,inactive: -10.6%
O=C(COC(=O)CNS(=O)(=O)c1ccccc1)Nc1ccc(Cl)cn1,–,inactive: -0.89%
COc1ccc(CNC(=O)c2cc3c(-c4ccc(Cl)cc4)nn(C)c3s2)cc1,"inconclusive [inhibitor, single point]",–
COCCNC(=O)C1(C)CCCN(C(=O)c2cccc(OC(F)(F)F)c2)C1 (configuration not stated),–,inactive: 9.81%
Cn1c(NCc2ccccc2)nc2cc(-c3ccccc3)sc2c1=O,"inconclusive [inhibitor, partial curve]",–

Compound,Potency,"activity change, negative = growth inhibition"
FC(F)(F)c1ccccc1-n1c(-c2cnccn2)n[nH]c1=S,–,inactive: -5.59%
Cc1cccc([C@@H]2[C@@H]3C(=O)N(Cc4ccccc4)C(=O)[C@@H]3[C@]3(Cc4ccccc4)C(=O)N(c4ccccc4)C(=O)N23)c1,–,inactive: -11.7%
O=S(=O)(c1ccccc1)N1CCC2(CC1)CN(Cc1ccccc1)C2,–,inactive: -5.96%
CCOC(=O)CSC1=C(C#N)C(=O)NC(c2ccc(OC)c(OC)c2)S1 (configuration not stated),active: 16.4 µM,–
CCN1CCCC1CNC(=O)c1cc2c(OC)cccc2[nH]1 (configuration not stated),–,inactive: -24.4%
COc1ccccc1NC(=O)CN1CCC(c2nc3ccccc3[nH]2)CC1,"inconclusive [inhibitor, single point]",–
CC(C)C(=O)NCCc1c[nH]c2ccccc12,–,inactive: 16.8%
Cc1c(C(=O)NC(C)c2ccccc2)sc2ncnc(N(C)C3CCCCC3)c12 (configuration not stated),active: 6.51 µM,–
CCOC(=O)[C@H]1[C@H]2COc3cc(OC)ccc3[C@@H]2N2C(=O)CN(Cc3ccc(OC)cc3)C(=O)[C@@]12C,"inconclusive [inhibitor, single point]",–
COc1cccc(C(=O)NCC[N+](C)(C)C)c1,–,inactive: -1.37%
CC(Sc1ccccc1)C(=O)N/N=C/c1ccccc1 (configuration not stated),–,inactive: 4.32%
Cc1ccc(-c2c(CN3CCN(c4cc(C)ccc4C)CC3)csc2C)cc1,"inconclusive [inhibitor, single point]",–
COc1ccc(C(C)=O)cc1COc1cccnc1[N+](=O)[O-],"inconclusive [inhibitor, single point]",–
CC1CCCCC1NC(=S)NC(=O)c1ccccc1Cl (configuration not stated),"inconclusive [inhibitor, single point]",–
COc1cccc(NC(=O)C2(C)CCN2Cc2ccc(SC)cc2)c1 (configuration not stated),"inconclusive [inhibitor, single point]",–
O=C(Nc1ccc(N2CCOCC2)cc1)c1csc([C@@H]2O[C@H](CO)[C@H](O)[C@H](O)[C@H]2O)n1,–,inactive: -0.826%
NC1=NC[C@@H](Cc2ccc(O)cc2)N1CC1CCCCC1,"inconclusive [inhibitor, single point]",–
Cc1cc(C)c(C#N)c(N2CCCC2)n1,–,inactive: 9.48%
CCN(CC)C(=O)CSc1nnc2ccc3ccccc3n12,–,inactive: 7.07%
O=S(=O)(Nc1ccc(-c2ccc(N3CCCCC3)nn2)cc1)c1ccc(OC(F)(F)F)cc1,"inconclusive [inhibitor, single point]",–
Cc1csc(NC(=O)Cc2nn(C)c(=O)c3ccccc23)n1,active: 10.3 µM,–
CCCn1cc(S(=O)(=O)c2cccc(Cl)c2)c(=O)c2cc(F)c(N3CCOCC3)cc21,"inconclusive [inhibitor, single point]",–
CC(C)(C)c1ccc(/C=C/C(=O)Nc2ccncc2)cc1,active: 10.3 µM,–
